The campaign covered roughly 410,000 compounds. About 5,000 (1.2%) were called active. The shares of active, inactive and inconclusive entries below differ from those in the screen. Calls follow the shape of the dose curve; as a rule, active = well fitted inhibition curve with a large enough effect; inconclusive = small, poorly fitted or top-dose-only effect; inactive = no such curve, though single readings can be large or run the other way. A potency beside an inconclusive call is a rough fit, not a confirmed value.
Experiment: qHTS for Inhibitors of TGF-b; also: nearly all actives have a fitted effect of over 65% in size
Conditions: HepG2 CAGA-GFP TGF-b/SMAD3 reporter, GFP fluorescence, 18 h, TGF-beta stimulated, 500 pg/mL final; series mostly up to 46.1 µM; activity, negative = inhibition: at the top concentration
Procedure, shortened: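 Inhibition was scored as loss of TGF-beta-induced (500 pg/mL final, 18 hours, 37 degrees C) GFP in HEPG2 cells carrying a CAGA-GFP reporter, in DMEM with 1% FBS. Well GFP was summed per cell; Activity was normalised to unstimulated and stimulated DMSO wells, then concentration-response fitting.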
With CCc1ccc(NC(=O)CC2C(=O)N(c3cccc(C)c3)C(=O)N2Cc2cccs2)cc1 (centres undefined) the Potency was inconclusive: 15.8 µM [inhibitor, single point]. With COc1ccc(N2CCN(C(=O)CCc3nnc4ccc(N5CCC(C)CC5)nn34)CC2)cc1 the Potency was inconclusive: 3.98 µM [inhibitor, single point]. In the case of Cc1cc(=O)c2cc(C(=O)c3ccccc3)ccc2[nH]1, the “activity, negative = inhibition” value is reported as inactive: -4.36%. With COc1ccc(-c2nc3c(Cl)cc(C(F)(F)F)cn3c2Cc2ccc(C)cc2)cc1OC the Potency was inconclusive: 31.6 µM [inhibitor, single point]. In the case of O=C(NNC(=O)c1ccccc1O)c1ccc(S(=O)(=O)Nc2ccccc2)cc1, the “activity, negative = inhibition” value is reported as inactive: -24.3%. With O=[N+]([O-])c1ccccc1S(=O)(=O)N1CCN(Cc2ccc3c(c2)OCO3)CC1 the Potency was inconclusive: 35.5 µM [inhibitor, single point]. In the case of CSc1ccc(CN(C)C(=O)c2ccc(S(=O)(=O)Nc3ccccc3)cc2)cc1, the Potency is reported as inconclusive: 14.1 µM [inhibitor, single point]. In the case of Cc1ccc(CNC(=O)C2CCCN2C(=O)Nc2cccc(Cl)c2)cc1 (centres undefined), the Potency is reported as inconclusive: 35.5 µM [inhibitor, single point]. In the case of O=C(CSc1ccc(S(=O)(=O)N2CCCCC2)cn1)Nc1ccccc1Br, the Potency is reported as inconclusive: 35.5 µM [inhibitor, single point]. In the case of O=C(CCC(=O)N1CCN(c2cccc(Cl)c2)CC1)N1CCN(c2ccccc2)CC1, the Potency is reported as inconclusive: 20 µM [inhibitor, single point]. In the case of c1ccc(CNc2nc3ccccc3c3nc(-c4ccccc4)nn23)cc1, the Potency is reported as inconclusive: 6.31 µM [inhibitor, single point]. For Cc1cc(=O)oc2cc(OC(=O)c3ccco3)ccc12, the “activity, negative = inhibition” value was inactive: 5.18%. With O=C(c1cccs1)C1C(c2ccc(Br)cc2)NC(=S)NC1(O)C(F)(F)F (centres undefined) the Potency was inconclusive: 35.5 µM [inhibitor, single point]. For O=C(C1CCCN(S(=O)(=O)c2cccs2)C1)N1CCN(c2cccc(Cl)c2)CC1 (centres undefined), the Potency was inconclusive: 4.47 µM [inhibitor, partial curve, poor fit]. In the case of C[C@H]1O[C@@H](O[C@H]2CC[C@@]3(C)C(CC[C@]4(C)C3C=C[C@]35OC[C@@]6(CCC(C)(C)C[C@H]63)[C@@H](O)C[C@]54C)[C@]2(C)CO)[C@H](O)[C@@H](O[C@@H]2O[C@H](CO)[C@@H](O)[C@H](O)[C@H]2O)[C@H]1O (some centres undefined), the Potency is reported as inconclusive: 35.5 µM [inhibitor, single point]. In the case of CC1CC(C)CN(c2ncc3c(n2)CC(c2ccccc2Cl)CC3=O)C1 (centres undefined), the Potency is reported as inconclusive: 35.5 µM [inhibitor, single point]. For CCC(C)c1ccc(NC(=S)NCc2cccs2)cc1 (centres undefined), the Potency was inconclusive: 14.1 µM [inhibitor, partial curve, poor fit]. With O=C(COC(=O)c1ccc[nH]c1=O)NCCCc1ccccc1 the “activity, negative = inhibition” value was inactive: -0.0029%. In the case of N#Cc1c(NC(=O)c2ccncc2)sc2c1CCC2, the Potency is reported as inconclusive: 35.5 µM [inhibitor, single point]. In the case of Cn1nc(C(=O)N2CCN(c3ccc(Cl)cc3)CC2)c2c1-c1ccccc1SC2, the Potency is reported as inconclusive: 12.6 µM [inhibitor, single point]. For CCOC(=O)c1c(C)[nH]c(C)c1C(=O)COC(=O)c1c(OC)cccc1OC, the “activity, negative = inhibition” value was inactive: 2%. With CCOc1cc(CNc2ccc(N(C)C)cc2)cc(Br)c1OCC(=O)NC(C)(C)C the Potency was inconclusive: 35.5 µM [inhibitor, single point]. For Cc1nc2c(OCc3ccc(C#N)cc3)cccn2c1N(C)C(=O)CCC1CCCC1, the Potency was inconclusive: 35.5 µM [inhibitor, single point]. For CCOC(=O)c1ccc(NC(=O)CSc2nnnn2CCCO)cc1, the Potency was inconclusive: 15.8 µM [inhibitor, single point]. For COc1ccc(Cl)cc1-c1cc(C(=O)Nc2ccc(C)c(NS(C)(=O)=O)c2)[nH]n1, the Potency was inconclusive: 35.5 µM [inhibitor, single point]. With Cc1cccc(NC(=O)COC(=O)c2ccc3c(=O)n4c(nc3c2)CCC4)c1 the Potency was inconclusive: 7.08 µM [inhibitor, full curve]. In the case of CCn1c(C(=O)N2CCC(C(=O)N3CCN(c4cccc(C)c4C)CC3)CC2)cc2sccc21, the Potency is reported as active: 11.2 µM. With CCCCCCn1c(=O)n2n(c1=O)[C@@H]1CN(S(=O)(=O)c3ccc(C)cc3)C[C@]1(O)[C@@H](OC(=O)NCc1ccccc1)C2 the Potency was inconclusive: 17.8 µM [inhibitor, single point]. With CC1Cc2ccccc2N1C(=O)c1cc2c(=O)n3ccccc3nc2n1C (centres undefined) the “activity, negative = inhibition” value was inactive: 24.2%. With Cc1cccc(-c2nc(SCCCOc3ccccc3Cl)n3[nH]c(=O)cc3n2)c1 the Potency was inconclusive: 22.4 µM [inhibitor, single point]. In the case of Cc1cc(N2CCN(c3ccccc3Cl)CC2)n2cc(-c3ccccc3)nc2n1, the Potency is reported as inconclusive: 35.5 µM [inhibitor, single point]. For O=C(CN(c1ccc(Br)cc1)S(=O)(=O)c1ccc(Cl)c([N+](=O)[O-])c1)NCC1CCCO1 (centres undefined), the Potency was inconclusive: 25.1 µM [inhibitor, single point]. With C#CCN(C)Cc1ccccc1 the “activity, negative = inhibition” value was inactive: 3%. For CCN1c2ccccc2-n2cccc2C12CCN(C(=O)Nc1ccccc1C(F)(F)F)CC2, the Potency was inconclusive: 6.31 µM [inhibitor, single point]. For COc1cc(C=C2CCCC(=Cc3ccc(OCC4CO4)c(OC)c3)C2=O)ccc1OCC1CO1 (centres undefined), the Potency was inconclusive: 22.4 µM [inhibitor, single point]. For CCSc1nnc(NC(=O)C2CC=CCC2C(=O)O)s1 (centres undefined), the “activity, negative = inhibition” value was inactive: -2.74%. With CCOc1nc2ccccc2nc1NS(=O)(=O)c1ccccc1 the Potency was inconclusive: 6.31 µM [inhibitor, full curve, poor fit]. In the case of CCOc1ccc(CNC(=O)Cn2c(=O)c3cccn3c3ccc(F)cc32)cc1, the “activity, negative = inhibition” value is reported as inactive: 3.92%. In the case of COc1cccc(N2CCN(C(=O)C3CCCN(S(=O)(=O)c4ccc(Br)s4)C3)CC2)c1 (centres undefined), the Potency is reported as inconclusive: 17.8 µM [inhibitor, partial curve, poor fit].
% is scaled to controls: 0 for no effect and ±100 for the full control effect; potency is read from the fitted curve at half-maximal effect; tags tell the direction and shape of the fitted curve.
